Screen size: about 300,000 compounds; about 2,300 (0.77%) were called active. The shares of active, inactive and inconclusive entries below differ from those in the screen.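 The calls were made as follows: active = mean activation of at least 80% with every replicate also reaching 80%; inconclusive = mean reaches 80% but some replicate falls short; inactive = the rest.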
Assay: MITF-driven TRPM1 luciferase induction in melanoma cells – cell-based, SK-MEL-5, single point, primary screen (AID 588334);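 also: 0% = neutral control wells and 100% = parthenolide positive control wells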
Settings: SK-MEL-5 TRPM1-promoter luciferase, 24 h; at 12.5 µM; stronger effect = higher value; % of positive control, neutral wells = 0

activation, inactive:
CC[C@@]12C(=O)N(c3cccc(C)c3)C(=O)N1[C@H](c1ccc(OC)cc1)[C@@H]1C(=O)N(C(C)(C)C)C(=O)[C@@H]12 -0.982%, C=CCc1c(C)nc(SC)nc1Nc1ccc(C(=O)O)cc1 -4.17%, Cc1ccc(-c2cc(-c3ccccc3)no2)cc1 40.5%, O=c1c2ccccc2c(C=Nc2ccc(O)cc2)c(O)n1Cc1ccccc1 64.2%, Cc1ccc(S(=O)(=O)N2[C@@H](c3ccc(C#N)cc3)C(C(=O)O)=C[C@H]2C(C)(C)C)cc1 12.8%, O=C(Nc1cccc(NC(=O)c2cccs2)c1)c1ccc(F)cc1 6.65%, O=C(O)Cc1cn(Cc2ccc(F)cc2)c2ccccc12 -3.38%, Cc1nc(-c2cccc(NC(=O)c3ccco3)c2)cs1 18.4%, COc1ccc(Cl)cc1N(CC(=O)N/N=C/c1ccc(OC(C)C)cc1)S(=O)(=O)c1ccc(C)c([N+](=O)[O-])c1 1.93%, C=CCNC(=O)NC(=O)CSc1nc2cc([N+](=O)[O-])ccc2n1-c1cccc(C(F)(F)F)c1 2.73%, COCCn1nnnc1C(c1ccc(C)cc1)N1CCN(Cc2ccc3c(c2)OCO3)CC1 (stereo unspecified) 4.76%, COCCn1c(N)c(N(Cc2ccccc2)C(=O)CN2C(=O)NC(C)(c3ccccc3)C2=O)c(=O)[nH]c1=O (stereo unspecified) -6.53%, CC(C)(C)n1nnnc1C(c1cccs1)N(Cc1ccccc1)Cc1ccco1 (stereo unspecified) -1.15%, COc1ccc(OC)c(NC(=O)COC(=O)COc2ccc(Nc3ccccc3)cc2)c1 4.21%, O=C(CCCCCNC(=O)N1CCn2c1nc1ccccc12)NCc1ccc(Cl)cc1 2.43%, COc1cc(OC)c(NC(=O)c2cncn2-c2ccc(F)cc2)cc1Cl 7.63%, CC(=NNC(=S)N1CC2CCC(CC2)C1)c1cnccn1 -67.2%, Cc1cccn2cc(-c3ccc4c(c3)NC(=O)CO4)nc12 45.8%, O=C(O)CCC(=O)N1CCc2cc(S(=O)(=O)NCCc3ccc(Cl)cc3)ccc21 0.436%, Cc1cc(NC(=O)c2ccc(N3CCCC3)c([N+](=O)[O-])c2)no1 0.287%, CC1CCN(C(=S)NCCc2ccccc2)CC1 6.39%, COc1c(CC=C(C)C)cc(C2CC(=O)c3c(O)cc(O)cc3O2)cc1CC=C(C)C (stereo unspecified) 9.57%, COc1cccc(OC)c1C(=O)Nc1nc2ccc(S(C)(=O)=O)cc2s1 -3.21%, COc1ccc(S(=O)(=O)N2CCN(CCC(=O)Nc3ccccc3F)CC2)cc1 4.2%, COc1ccc(-c2nc(C#N)c(NCCc3ccccc3)o2)cc1OC 77.9%, Cc1ccccc1-n1c(-c2csc(C)c2C)n[nH]c1=S 3.48%, CN(Cc1ccccc1)c1nc(N)c([N+](=O)[O-])c(NCc2ccccc2)n1 1.3%, CCOC(=O)c1c(NC(=O)/C=C/C(=O)O)sc(C)c1-c1ccc(C(C)(C)C)cc1 -37.2%, COc1ccccc1NC(=O)c1ccc(NS(=O)(=O)c2cccc3cccnc23)cc1 -3.52%, CCn1ncc(C2=NOC(C(=O)Nc3ccc(C)cc3)C2)c1C (stereo unspecified) -21.2%, Cc1ccc(-c2cc(C(=O)N/N=C/c3c(C)nn(C)c3C)c3ccccc3n2)cc1C 37.2%, c1ccc(C2=Nn3c(nnc3-c3cc(-c4ccccc4)n[nH]3)SC2)cc1 48.1%, OC(COc1ccc(Cl)cc1Cl)Cn1ccnc1 (stereo unspecified) -8.07%, O=C(Nc1ccc(O)cc1)c1ccccc1OCc1ccccc1 -12.2%, CNC(=O)C1CC(=O)N(c2ccc(OCC(=O)Nc3ccccc3)cc2)C1 (stereo unspecified) -3.16%

activation, inconclusive:
Clc1ccc(-n2nnc(-c3ncc[nH]3)n2)cc1Cl 80.8%, COc1ccc(-c2ccc(SCC(=O)Nc3cccc(C(C)=O)c3)nn2)cc1OC 87%, Cc1ccc(C2CCN(C(=O)Nc3ccccc3)C2)cc1 (stereo unspecified) 85.2%, Oc1[nH]c2ccccc2c1C=Nc1ccccc1 84%, CC/C(=N\NC(=O)c1csc(C)c1C)c1cccs1 86.8%, CCC(=O)Nc1ccc(-c2ccc(N3CCCCC3)nn2)cc1 83.4%, COc1cccc(C(=O)Nc2cccc(-c3ccc(N4CCOCC4)nn3)c2)c1OC 87.4%, CCN(CC)C(=O)Oc1ccc2c(=O)c(-c3ccc(OC)cc3)coc2c1 80.5%, O=C(Nc1ccc2c(c1)OCO2)c1cc(-c2ccccc2Cl)on1 107%, CSc1nc2ccc(NC(=O)c3nn(C(C)C)c(=O)c4ccccc34)cc2s1 80%, COc1ccc(/C=N/Nc2snc(SC)c2C#N)cc1OC 80.8%, O=c1oc(-c2cccs2)nc2sc3c(c12)CCCCC3 81%, Cn1c(SCc2ccccc2)nnc1-c1cccs1 82.5%, COc1ccc(C(=O)Nc2ccc(Cl)cn2)cc1Cl 84%, O=C(NCc1ccc(F)cc1)c1cnn2ccccc12 80.9%, Cc1ccc(NC(=O)Nc2ccc3c(c2)N(C)C(=O)CS3)nc1 80.6%, COc1ccc2c(c1OC)C(=O)N(c1ccc(F)cc1)C2 80.8%, O=C(Nc1ccc2oc(-c3ccccc3F)nc2c1)c1ccco1 80.9%, CC(C)(C)S(=O)(=O)c1cnc2c(-c3ccsc3)cnn2c1N 82.5%, COc1ccc(OC(=O)Nc2ccccc2)cc1 81.6%, O=C1CCC(/C=C/c2ccccc2)=NN1Cc1ccccc1 607%, Clc1ccc(Sc2cnc3ccccc3n2)cc1 80%, COc1ccc2nc(NC(=O)NC3CCCCC3)sc2c1 81.6%, CCOC(=O)c1cccc(NC(=O)c2ccc(F)cc2F)c1 81%, Cc1nc(-c2ccc(NC(=O)c3ccccc3Br)cc2)cs1 83.7%, Cc1cccc(-c2cnn(-c3ccccc3)c2N)c1 85.2%, CCOc1ccccc1C1N=C(c2ccc(OC)cc2)CC(c2ccccc2O)N1 (stereo unspecified) 82.4%, CCOC(=O)CCSc1nc(C)c2cc(C)ccc2n1 86.1%, CC(C)c1ccc(NC(=O)Nc2cnccn2)cc1 84.2%, O=C(Nc1ccc(Cl)cc1Cl)c1ccc2c(=O)n3c(nc2c1)CCC3 95.5%, Cc1ccc(CNC(=O)Nc2ccccc2)cc1 81.5%, Cc1cc(C(=O)COC(=O)c2cccc(S(=O)(=O)N(C)C)c2)c(C)n1CC1CCCO1 (stereo unspecified) 88.5%, COc1ccc(NC(=O)CSc2ccccc2)c([N+](=O)[O-])c1 81.1%, COCCNC(=O)c1cc(-c2cccc(OC)c2)on1 81%, Clc1cnc(N/N=C/c2cccs2)c(Cl)c1 85.4%, Cc1cc(CN(C)C(=O)c2cc(COc3ccc(C)c(C)c3)on2)on1 84%, Cn1cnc2cc(NCc3ccccc3Cl)ccc21 90.3%, Cc1cc(/C=C(\C#N)C(=O)NCC2CCCO2)c(C)n1-c1ccc(Cl)cc1 (stereo unspecified) 81.6%, COC(=O)c1c(NC(=O)CN2CCOCC2)sc2c1CCC(C)C2 (stereo unspecified) 85.3%, c1ccc(-c2noc(CC3CCCCC3)n2)cc1 80.4%, O=c1c2ccccc2oc2ccc(Oc3ccccc3)cc12 99.4%

activation, active:
COc1ccc2c(c1OC)C(=O)OC2Nc1nc(-c2cc3cc(Br)ccc3oc2=O)cs1 (stereo unspecified) 144%, O=C(NC(=S)Nc1ccc2c(c1)OCCO2)c1ccccc1F 84.6%, COc1ccc(-c2cc(-c3cc(F)ccc3O)[nH]n2)cc1OC 100%, O=C(COc1ccc(Cl)cc1Br)NC(=O)NC1CCCC1 152%, CC(C)=CC(=O)Nc1ccc(Br)cc1 107%, Cc1csc(Nc2nc(N)c(C(=O)Nc3ccccc3)o2)n1 93.4%, COCC(=O)Nc1c(C(=O)Nc2cccc(OC)c2)oc2ccccc12 97.4%, CC1=CCC(COC(=O)Nc2ccccc2)CC1 (stereo unspecified) 126%, NC(=O)c1c(NC(=O)c2cccs2)sc2c1CCCCCC2 118%, Cc1ccc(N=Cc2nc(-c3ccco3)oc2O)cc1 104%, COc1ccc2c(=O)c(-c3ccc(OC)c(OC)c3)coc2c1 95%, N/C(=N\OC(=O)c1ccc2c(c1)OCO2)c1cccc(Br)c1 116%, COc1cc(/C=N/NC(=O)c2ccncc2)ccc1OCC(=O)Nc1ccccc1 99%, CCOC(=O)c1ccc(N2Cc3ccccc3C2)cc1O 106%, CCCC(=O)N1CCN(c2nc3ccccc3s2)CC1 96.5%, C1=C(c2cc3ccccc3cn2)CCCC1 96.6%, O=C(Nc1ccc2c(c1)Cc1ccccc1-2)c1ccco1 151%, Cn1c(-c2ccc(C(F)(F)F)cc2)cc2onc(-c3ccccc3)c2c1=O 126%, CC(=O)N1N=C(c2ccc(C)cc2)OC1c1ccc(Br)cc1 (stereo unspecified) 89.9%, COC(=O)c1ccc(/C=C(\C#N)c2ccccn2)cc1 107%

Reference: PubChem BioAssay AID588334 (Broad Institute, 2011)
